From PMC4577084
Results are given in words; binding and its absence hold for the method and conditions named. In cells and extracts the contact can be indirect. Some results given as binding are weak or reduced against the parent protein; the word gives no strength. Sequences can lack the tags named with a protein.

Tests used:
Assay in all cases: split reporter; BiFC: fusions with YFP N- or C-terminal half (pSPYNE-35S, pSPYCE-35S) co-introduced into the abaxial side of Nicotiana benthamiana leaves; imaged 48 h after co-infiltration; YFP fluorescence in nuclei
[1] = target: T1, BLADE-ON-PETIOLE 1 (BOP1) fused with a half of YFP (BiFC) (Arabidopsis thaliana) (UniProt Q9M1I7)
T1 sequence: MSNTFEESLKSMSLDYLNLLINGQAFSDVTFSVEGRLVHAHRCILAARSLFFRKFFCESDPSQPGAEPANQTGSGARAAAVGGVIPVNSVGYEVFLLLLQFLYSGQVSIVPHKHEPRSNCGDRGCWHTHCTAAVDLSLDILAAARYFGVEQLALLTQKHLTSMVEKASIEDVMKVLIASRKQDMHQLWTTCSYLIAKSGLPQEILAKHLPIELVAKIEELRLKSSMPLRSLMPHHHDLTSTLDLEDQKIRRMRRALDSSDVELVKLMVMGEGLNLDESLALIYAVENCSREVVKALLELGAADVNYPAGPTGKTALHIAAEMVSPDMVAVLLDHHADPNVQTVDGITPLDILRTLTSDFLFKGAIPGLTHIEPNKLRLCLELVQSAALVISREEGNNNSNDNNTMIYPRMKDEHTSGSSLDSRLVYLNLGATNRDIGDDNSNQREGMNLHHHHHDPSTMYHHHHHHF

[2] = target: T2, BLADE-ON-PETIOLE 2 (BOP2) fused with a half of YFP (BiFC) (Arabidopsis thaliana) (UniProt Q9ZVC2)
T2 sequence: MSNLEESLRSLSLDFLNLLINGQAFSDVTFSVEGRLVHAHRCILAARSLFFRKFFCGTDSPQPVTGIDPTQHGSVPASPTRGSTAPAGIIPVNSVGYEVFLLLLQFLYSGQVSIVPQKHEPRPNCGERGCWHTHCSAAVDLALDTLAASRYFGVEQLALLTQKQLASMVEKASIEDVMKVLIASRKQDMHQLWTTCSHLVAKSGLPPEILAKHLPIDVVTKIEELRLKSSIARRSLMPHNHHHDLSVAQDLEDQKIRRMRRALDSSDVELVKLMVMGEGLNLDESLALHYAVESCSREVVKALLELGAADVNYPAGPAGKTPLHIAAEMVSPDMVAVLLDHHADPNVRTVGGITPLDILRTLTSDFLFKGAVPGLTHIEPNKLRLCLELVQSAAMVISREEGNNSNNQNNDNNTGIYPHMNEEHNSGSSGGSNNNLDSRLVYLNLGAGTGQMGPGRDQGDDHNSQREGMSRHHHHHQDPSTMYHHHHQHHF

[3] = target: T3, JAGGED (JAG) fused with a half of YFP (BiFC) (Arabidopsis thaliana) (UniProt Q6S591)
T3 sequence: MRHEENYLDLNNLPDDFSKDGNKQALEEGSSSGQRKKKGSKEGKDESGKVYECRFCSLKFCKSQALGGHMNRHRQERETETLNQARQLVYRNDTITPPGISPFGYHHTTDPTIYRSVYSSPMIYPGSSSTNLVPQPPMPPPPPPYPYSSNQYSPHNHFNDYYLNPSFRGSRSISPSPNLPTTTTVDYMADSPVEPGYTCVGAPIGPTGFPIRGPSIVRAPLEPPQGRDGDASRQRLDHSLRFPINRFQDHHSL

[4] = target: T4, KNAT1/B…US (BP) fused with a half of YFP (BiFC) (Arabidopsis thaliana) (UniProt P46639)
T4 sequence: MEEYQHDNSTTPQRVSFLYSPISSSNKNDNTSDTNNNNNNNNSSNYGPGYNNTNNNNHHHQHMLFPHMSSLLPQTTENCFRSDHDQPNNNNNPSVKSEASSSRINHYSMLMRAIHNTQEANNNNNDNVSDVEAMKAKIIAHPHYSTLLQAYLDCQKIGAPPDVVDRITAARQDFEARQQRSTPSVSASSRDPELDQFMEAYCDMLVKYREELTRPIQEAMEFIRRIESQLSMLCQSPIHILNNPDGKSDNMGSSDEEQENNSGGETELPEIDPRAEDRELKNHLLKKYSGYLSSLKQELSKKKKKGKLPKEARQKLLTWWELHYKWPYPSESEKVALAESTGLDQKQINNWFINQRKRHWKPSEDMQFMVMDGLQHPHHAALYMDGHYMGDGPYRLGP

[5] = target: T5, PINHEAD (PNH) fused with a half of YFP (BiFC) (Arabidopsis thaliana) (UniProt Q9XGW1)
T5 sequence: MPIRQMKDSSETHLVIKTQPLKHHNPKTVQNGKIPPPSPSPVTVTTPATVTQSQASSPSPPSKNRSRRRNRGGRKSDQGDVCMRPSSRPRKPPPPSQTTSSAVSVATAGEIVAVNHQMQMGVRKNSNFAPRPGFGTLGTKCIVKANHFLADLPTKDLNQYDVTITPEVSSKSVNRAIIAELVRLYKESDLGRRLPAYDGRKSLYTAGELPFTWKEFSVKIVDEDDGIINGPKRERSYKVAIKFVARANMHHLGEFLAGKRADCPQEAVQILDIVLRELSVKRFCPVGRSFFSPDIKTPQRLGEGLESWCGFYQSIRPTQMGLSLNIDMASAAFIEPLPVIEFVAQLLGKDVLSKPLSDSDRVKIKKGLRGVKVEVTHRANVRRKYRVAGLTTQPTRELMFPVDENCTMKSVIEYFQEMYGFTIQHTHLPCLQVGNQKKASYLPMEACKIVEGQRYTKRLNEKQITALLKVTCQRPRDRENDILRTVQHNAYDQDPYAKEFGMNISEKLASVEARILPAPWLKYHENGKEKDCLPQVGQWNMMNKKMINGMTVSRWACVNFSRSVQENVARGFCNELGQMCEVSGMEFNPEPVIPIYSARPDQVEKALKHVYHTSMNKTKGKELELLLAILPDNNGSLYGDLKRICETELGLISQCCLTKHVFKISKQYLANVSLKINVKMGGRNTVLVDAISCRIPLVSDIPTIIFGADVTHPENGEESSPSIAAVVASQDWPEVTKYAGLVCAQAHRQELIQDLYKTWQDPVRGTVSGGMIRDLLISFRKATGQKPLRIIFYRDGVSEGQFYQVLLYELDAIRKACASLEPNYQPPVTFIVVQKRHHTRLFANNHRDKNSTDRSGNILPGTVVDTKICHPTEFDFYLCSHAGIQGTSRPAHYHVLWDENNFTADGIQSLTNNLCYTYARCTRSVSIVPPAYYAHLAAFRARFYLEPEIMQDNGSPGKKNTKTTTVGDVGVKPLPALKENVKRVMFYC

binding [1]: no binding
binding [2]: no binding
binding [3]: binds
binding [4]: no binding
binding [5]: binds
B1: HANABA TARANU (HAN) fused with a half of YFP (BiFC) (protein, UniProt Q8LC79 1-295)
chain: MMQTPYTTSTQGQYCHSCGMFHHHSQSCCYNNNNNSNAGSYSMVFSMQNGGVFEQNGEDYHHSSSLVDCTLSLGTPSTRLCEEDEKRRRSTSSGASSCISNFWDLIHTKNNNSKTAPYNNVPSFSANKPSRGCSGGGGGGGGGGGGDSLLARRCANCDTTSTPLWRNGPRGPKSLCNACGIRFKKEERRTTAATGNTVVGAAPVQTDQYGHHNSGYNNYHAATNNNNNNGTPWAHHHSTQRVPCNYPANEIRFMDDYGSGVANNVESDGAHGGVPFLSWRLNVADRASLVHDFTR
